# Reference: PubChem BioAssay AID760 (NMMLSC, 2007)
# The whole screen tested about 190,000 compounds, of which about 360 (0.19%) were called active. The shares of active, inactive and inconclusive entries below differ from those in the screen.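 Rule for the calls: active = GTP binding activity at least 20 points away from 100%, either lowered or raised; inconclusive = signal likely due to the compound's own green fluorescence; inactive = the rest.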
# Target: Ras-related protein Rab-2A (Canis lupus familiaris) (UniProt P61105)
# Assay: Rab2 wt fluorescent GTP binding changes, either direction – biochemical, dog, bead-based flow cytometry, multiplex, primary screen (AID 760);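 note: 0% = beads with excess unlabeled GTP and 100% = no-compound control corrected for plate trend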
# Conditions: GST-Rab2 wt beads, Bodipy-GTP binding, at 10 µM
row,SMILES,GTP binding activity
1,S=C(NCc1cccs1)Nc1cccc(Cl)c1,inconclusive: 102%
2,COc1ccc(C(=O)N/C(=C\c2ccco2)C(=O)NCCCn2ccnc2)cc1,inconclusive: 103%
3,CN1C(=O)/C(=C\c2ccc(-c3ccccc3)o2)SC1=S,inactive: 88%
4,Cc1ccc(Sc2ncnc3onc(C)c23)c(C)c1,inconclusive: 97%
5,CCOC(=O)N1CCC(N2Cc3cccc(C(=O)Nc4ccc(CC)cc4)c3C2=O)CC1,inconclusive: 85%
6,Cc1[nH]c2ccccc2c1CCNC(=O)c1c(N)no[n+]1[O-],inconclusive: 91%
7,CCOc1cc(NS(=O)(=O)c2ccc(NC(C)=O)cc2)c(OCC)cc1NC(=O)c1cccs1,inactive: 97%
8,Cc1ccc([N+](=O)[O-])cc1NC(=O)c1ccc(C(C)(C)C)cc1,inconclusive: 106%
9,Cc1ccc(C)c(NC(=S)N(Cc2ccc(Cl)cc2)Cc2ccc(C(=O)O)cc2)c1,inactive: 98%
10,COc1ccc(-c2nc(CSCC(=O)NCc3ccc4c(c3)OCO4)c(C)o2)cc1,inconclusive: 103%
11,NC(=O)c1ccccc1NC(=O)/C=C/c1cccc(Cl)c1,inconclusive: 108%
12,COc1ccc(/C=C/C2=CC(C)(C)NC(=S)N2)c(OC)c1,inactive: 96%
13,COC(=O)Nc1[nH]ncc1[N+](=O)[O-],inactive: 98%
14,CC(SC(=S)N(C)Cc1cccs1)C(=O)O (stereo not drawn),active: 140% [activator]
15,CCO[C@H]1OC(C(=O)N2CCN(C)CC2)=C[C@@H](c2ccc(Br)cc2)[C@@H]1CCCO,inactive: 100%
16,CCOC(=O)Cn1cc(C(=O)C2CC2)c2ccccc21,inconclusive: 90%
17,COc1ccc(CSC(=N)N)cc1[N+](=O)[O-],inconclusive: 103%
18,CCCc1nnc(SCC(=O)N2CCCCC2C)n1CCOC (stereo not drawn),inactive: 94%
19,CCOC(=O)c1c(NC(C)=O)sc2c(O)c(CN3CCN(CC)CC3)ccc12,inactive: 97%
20,COc1ccc(N(CC(=O)O)S(=O)(=O)c2ccc(C)cc2)cc1Cl,inconclusive: 92%

row,SMILES,GTP binding activity
1,O=C(Nc1nnc(-c2ccc3c(c2)OCCO3)o1)C1CCCCC1,inactive: 96%
2,COc1ccccc1NS(=O)(=O)c1cc([N+](=O)[O-])ccc1N/N=C/c1sc(N2CCOCC2)nc1-c1ccccc1,inconclusive: 125%
3,COc1ccc(NC(=O)[C@H](COCc2ccccc2)NC(=O)OC(C)(C)C)cc1,inconclusive: 104%
4,O=C(CCN1C(=O)c2ccccc2C1=O)OCn1nnc2ccccc2c1=O,inconclusive: 106%
5,CCS(=O)(=O)N1CCCC(C(=O)NCCN2CCC(Cc3ccccc3)CC2)C1 (stereo not drawn),inconclusive: 104%
6,CCN(CC)S(=O)(=O)c1ccc(Cl)c(NC(=O)COc2ccc3c(C)cc(=O)oc3c2)c1,inconclusive: 114%
7,O=C(NCc1ccc(Cl)cc1)c1ncn[nH]1,inactive: 96%
8,COc1cc(-c2cc(-c3ccc(O)cc3)nc(N)c2C#N)ccc1O,inconclusive: 67%
9,O=C(c1cccs1)N1CCN(S(=O)(=O)c2ccc(F)cc2)CC1,inconclusive: 93%
10,COCCOC(=O)c1c(C)n(C)c2ccc(OC(=O)c3ccco3)cc12,inactive: 103%
11,CCCCc1nc2ccccc2[nH]1,inconclusive: 96%
12,O=C(N/N=C\C=C\c1ccco1)c1cc(-c2ccc3ccccc3c2)n[nH]1,inconclusive: 96%
13,O=C1N=C2N(CCN3CCCCC3)c3ccccc3N2/C1=C\c1ccc([N+](=O)[O-])o1,inconclusive: 93%
14,CCOc1cc(/C=N/NC(=O)c2cccs2)cc([N+](=O)[O-])c1O,inconclusive: 55%
15,CC1(C)N=C(c2ccc(Cl)cc2)C(=O)N1,inconclusive: 105%
16,COc1cccc(NC(=S)NCc2ccc3c(c2)cc(C)n3C)c1,inconclusive: 95%
17,CCOc1cc(/C=N/Nc2nc(-c3cccc(S(=O)(=O)N4CCCC4)c3)cs2)ccc1O,inconclusive: 80%
18,Nc1nonc1C(=O)N/N=C/c1ccc(-c2ccc(Cl)c(C(=O)O)c2)o1,inconclusive: 89%
19,CCC(=O)NCCCCCCNC(=O)CC,inconclusive: 102%
20,CCN(C(=O)Cc1ccc(Br)cc1)C1CCCCC1,inconclusive: 89%

row,SMILES,GTP binding activity
1,COc1ccc(-n2nc(C(=O)Nc3cc(OC)c(OC)c(OC)c3)c3ccccc3c2=O)c(OC)c1,inconclusive: 97%
2,CN(C)c1ccc(/C=C2\SC(=S)N(Nc3ncc(C(F)(F)F)cc3Cl)C2=O)cc1,inconclusive: 142%
3,Cc1nn(Cc2ccccc2)c(Cl)c1C(=O)NCc1ccco1,inactive: 103%
4,O=C(CSc1nc2scc(-c3ccccc3)c2c(=O)[nH]1)NC1CCCCC1,inactive: 89%
5,COc1ccc(CCNC(=O)C2CCCN2C(=O)NC2CCCCC2)cc1OC (stereo not drawn),active: 128% [activator]
6,CC(=O)N1C(=O)/C(=C2\SC(=S)N(NC(=O)c3ccc(O)cc3)C2=O)c2ccccc21,inconclusive: 74%
7,Cc1ccccc1NC(=O)C1CCCN1S(=O)(=O)c1cccc2cccnc12 (stereo not drawn),inactive: 113%
8,Cc1ccc(C)c(-n2c3nc(=O)[nH]c(=O)c-3cc3cc([N+](=O)[O-])ccc32)c1,inconclusive: 92%
9,COc1ccc(C(=O)c2ccc([N+](=O)[O-])cc2Cl)cc1,inconclusive: 90%
10,Cc1ccc(C(=O)NNC(=O)CSc2nnc3c(n2)[nH]c2ccc(C)cc23)cc1,inconclusive: 87%
11,O=C(C[n+]1ccccc1)Nc1cc(C(F)(F)F)ccc1Cl,inconclusive: 105%
12,Cc1ccc(NC(=O)CS(=O)(=O)c2c[nH]c3ccccc23)c(C)c1,inconclusive: 764%
13,CCCC(=O)Nc1ccc2c(c1)nc(CCNC(=O)c1ccccc1)n2C,inconclusive: 103%
14,CCOC(=O)CN/C=C(\C#N)c1ccc(F)cc1,inactive: 102%
15,COc1cccc(-c2n[nH]c3c2CCC3)c1,inconclusive: 97%
16,Cc1ccc(/C=N/N(C)C2=NS(=O)(=O)c3ccccc32)o1,active: 65%
17,Cc1ccc(N2C(=O)c3cccc4c(N5CCN(C)CC5)ccc(c34)C2=O)c2cccnc12,inconclusive: 104%
18,CCC(C)(C)n1nnnc1C(c1cc2cccc(C)c2[nH]c1=O)N1CCCC1 (stereo not drawn),inconclusive: 105%
